Source: the supplement of paper PMC4604168 (melanoma cell lines)
The other results are listed elsewhere or left out. Many values rest on one well or one pass, so single values are uncertain.

System: UACC257
Test: cell count relative to DMSO control; melanoma cells; higher = more viable cells
Settings: library dose: standard library concentration; 72 h
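Further: cells treated in 1,536-well plates, then fixed and DAPI-stained, with nuclei counted from automated high-throughput microscope images.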

How did the cell count turn out when `CC1(C)NC(=O)N(c2ccc([N+](=O)[O-])c(C(F)(F)F)c2)C1=O` [nilutamide] + CCc1ccc(CCOc2ccc(CC3SC(=O)NC3=O)cc2)nc1 [pioglitazone] (first compound 5 µM, partner dose 10 µM) was run?
The cell count was 88.6%.

`O=C(Nc1cccc(Cl)c1)Nc1ncc(CCNc2ncnc3ccsc23)s1` + CC(C)CCN1c2nc(Nc3cc(F)c(O)c(F)c3)ncc2N(C)C(=O)C1C [BID1870] (first compound 0.004 µM, partner dose 1 µM) was tested. Which cell count did it give?
Its cell count is 65.4%.

With `COc1cc(Nc2ncc(F)c(Nc3ccc4c(n3)NC(=O)C(C)(C)O4)n2)cc(OC)c1OC` [Tamatinib] + N#Cc1c(O)c2c(-c3ccc(-c4ccccc4O)cc3)csc2[nH]c1=O [A769662] (first compound 2 µM, partner dose 10 µM) as the molecule, how does the cell count read?
The cell count was 86.1%.

How did the cell count turn out when `O=C(Nc1cccc(Cl)c1)Nc1ncc(CCNc2ncnc3ccsc23)s1` + COC(=O)c1sccc1S(=O)(=O)Nc1ccc(Nc2ccccc2)cc1OC [GSK0660] (first compound 0.004 µM, partner dose 5 µM) was run?
The cell count was 61.1%.

For `O=C(Nc1cccc(Cl)c1)Nc1ncc(CCNc2ncnc3ccsc23)s1` + c1cc(-c2cnn3cc(-c4ccc(OCCN5CCCCC5)cc4)cnc23)ccn1 [Dorsomorphin] (first compound 0.004 µM, partner dose 2 µM), which cell count is on record?
The cell count was 53.9%.

How did the cell count turn out when `CC1(C)NC(=O)N(c2ccc([N+](=O)[O-])c(C(F)(F)F)c2)C1=O` [nilutamide] + COc1ccc2c(c1)CCC1C2CCC2(C)C(NCCCCCCN3C(=O)C=CC3=O)CCC12 [U73122] (first compound 5 µM, partner dose 2 µM) was run?
Its cell count is 93.2%.

`O=C(Nc1cccc(Cl)c1)Nc1ncc(CCNc2ncnc3ccsc23)s1` + Oc1cc(-c2nc(-c3ccccc3)[nH]c2-c2ccncc2)ccc1Cl [L779450] (first compound 0.004 µM, partner dose 1 µM) was tested. Which cell count did it give?
Its cell count is 68.7%.

How did the cell count turn out when `CC1(C)NC(=O)N(c2ccc([N+](=O)[O-])c(C(F)(F)F)c2)C1=O` [nilutamide] + Cc1cc([N+](=O)[O-])ccc1NS(=O)(=O)c1cc(Cl)ccc1Cl [FH535] (first compound 5 µM, partner dose 5 µM) was run?
The cell count was 68%.

How did the cell count turn out when `O=C(O)c1ccc(-c2c[nH]c3ncc(-c4ccccc4)cc23)cc1C1CCCC1` + CC(C)CCN1c2nc(Nc3cc(F)c(O)c(F)c3)ncc2N(C)C(=O)C1C [BID1870] (first compound 0.8 µM, partner dose 1 µM) was run?
Its cell count is 73.9%.

`Cn1cncc1[C@@](N)(c1ccc(Cl)cc1)c1ccc2c(c1)c(-c1cccc(Cl)c1)cc(=O)n2C` [tipifarnib] + COc1cc(N2CCC(N3CCN(C)CC3)CC2)ccc1Nc1ncc(Cl)c(Nc2ccccc2S(=O)(=O)C(C)C)n1 [NVP-TAE684] (first compound 0.05 µM, partner dose 0.4 µM) was tested. Which cell count did it give?
The cell count was 81.4%.

With `O=C(O)c1ccc(-c2c[nH]c3ncc(-c4ccccc4)cc23)cc1C1CCCC1` + COc1ccc2c(c1)CCC1C2CCC2(C)C(NCCCCCCN3C(=O)C=CC3=O)CCC12 [U73122] (first compound 0.8 µM, partner dose 2 µM) as the molecule, how does the cell count read?
The cell count was 68.4%.

With `C[C@@H]1CCN(C(=O)CC#N)C[C@@H]1N(C)c1ncnc2[nH]ccc12` + O=C(O)C(=O)Nc1sc2c(c1C(=O)O)CCNC2 [TCS401] (first compound 5 µM, partner dose 8.33333 µM) as the molecule, how does the cell count read?
The cell count was 93.7%.

`C[C@@H]1CCN(C(=O)CC#N)C[C@@H]1N(C)c1ncnc2[nH]ccc12` + CCCCCCCCCCCC1=C(O)C(=O)C=C(O)C1=O [Embelin] (first compound 5 µM, partner dose 6 µM) was tested. Which cell count did it give?
Its cell count is 101%.

For `O=C(Nc1cccc(Cl)c1)Nc1ncc(CCNc2ncnc3ccsc23)s1` + COc1ccc(COc2ccc(Cc3cnc(N)nc3N)cc2OC)cc1 [GW2580] (first compound 0.004 µM, partner dose 5 µM), which cell count is on record?
The cell count was 52.4%.

How did the cell count turn out when `COc1cc(Nc2ncc(F)c(Nc3ccc4c(n3)NC(=O)C(C)(C)O4)n2)cc(OC)c1OC` [Tamatinib] + COc1ccc2c(c1)CCC1C2CCC2(C)C(NCCCCCCN3C(=O)C=CC3=O)CCC12 [U73122] (first compound 2 µM, partner dose 2 µM) was run?
Its cell count is 95.2%.

Which cell count does the source give for `C[C@@H]1CCN(C(=O)CC#N)C[C@@H]1N(C)c1ncnc2[nH]ccc12` + O=C(Nc1ccccc1)c1cc([N+](=O)[O-])ccc1Cl [GW9662] (first compound 5 µM, partner dose 10 µM) here?
The cell count was 75.5%.

For `C[C@@H]1CCN(C(=O)CC#N)C[C@@H]1N(C)c1ncnc2[nH]ccc12` + CC(C)CCN1c2nc(Nc3cc(F)c(O)c(F)c3)ncc2N(C)C(=O)C1C [BID1870] (first compound 5 µM, partner dose 1 µM), which cell count is on record?
The cell count was 95.8%.

How did the cell count turn out when `O=C(O)c1ccc(-c2c[nH]c3ncc(-c4ccccc4)cc23)cc1C1CCCC1` + Oc1cc(-c2nc(-c3ccccc3)[nH]c2-c2ccncc2)ccc1Cl [L779450] (first compound 0.8 µM, partner dose 1 µM) was run?
Its cell count is 68.7%.

For `Cn1cncc1[C@@](N)(c1ccc(Cl)cc1)c1ccc2c(c1)c(-c1cccc(Cl)c1)cc(=O)n2C` [tipifarnib] + O=S(=O)(c1ccccc1)N(CC(F)(F)F)c1ccc(C(O)(C(F)(F)F)C(F)(F)F)cc1 [T0901317] (first compound 0.05 µM, partner dose 7 µM), which cell count is on record?
Its cell count is 99.6%.

Which cell count does the source give for `CC1(C)NC(=O)N(c2ccc([N+](=O)[O-])c(C(F)(F)F)c2)C1=O` [nilutamide] + O=S(=O)(c1ccccc1)N(CC(F)(F)F)c1ccc(C(O)(C(F)(F)F)C(F)(F)F)cc1 [T0901317] (first compound 5 µM, partner dose 7 µM) here?
Its cell count is 85.6%.

For `O=C(Nc1cccc(Cl)c1)Nc1ncc(CCNc2ncnc3ccsc23)s1` + COc1ccc(-c2ccc3c(N4CCOCC4)nc(N4C[C@@H](C)O[C@@H](C)C4)nc3n2)cc1CO [KU0063794] (first compound 0.004 µM, partner dose 0.1 µM), which cell count is on record?
Its cell count is 78%.

How did the cell count turn out when `CC1(C)NC(=O)N(c2ccc([N+](=O)[O-])c(C(F)(F)F)c2)C1=O` [nilutamide] + CCCCCCCCCCCC1=C(O)C(=O)C=C(O)C1=O [Embelin] (first compound 5 µM, partner dose 6 µM) was run?
Its cell count is 77.5%.

`COc1cc(Nc2ncc(F)c(Nc3ccc4c(n3)NC(=O)C(C)(C)O4)n2)cc(OC)c1OC` [Tamatinib] + COc1cc(N2CCC(N3CCN(C)CC3)CC2)ccc1Nc1ncc(Cl)c(Nc2ccccc2S(=O)(=O)C(C)C)n1 [NVP-TAE684] (first compound 2 µM, partner dose 0.4 µM) was tested. Which cell count did it give?
Its cell count is 66.6%.

`COc1cc(Nc2ncc(F)c(Nc3ccc4c(n3)NC(=O)C(C)(C)O4)n2)cc(OC)c1OC` [Tamatinib] + Cc1cc([N+](=O)[O-])ccc1NS(=O)(=O)c1cc(Cl)ccc1Cl [FH535] (first compound 2 µM, partner dose 5 µM) was tested. Which cell count did it give?
The cell count was 50.8%.

How did the cell count turn out when `CC1(C)NC(=O)N(c2ccc([N+](=O)[O-])c(C(F)(F)F)c2)C1=O` [nilutamide] + COc1ccc(-c2ccc3c(N4CCOCC4)nc(N4C[C@@H](C)O[C@@H](C)C4)nc3n2)cc1CO [KU0063794] (first compound 5 µM, partner dose 0.1 µM) was run?
The cell count was 110%.

For `O=C(O)c1ccc(-c2c[nH]c3ncc(-c4ccccc4)cc23)cc1C1CCCC1` + COc1cc(N2CCC(N3CCN(C)CC3)CC2)ccc1Nc1ncc(Cl)c(Nc2ccccc2S(=O)(=O)C(C)C)n1 [NVP-TAE684] (first compound 0.8 µM, partner dose 0.4 µM), which cell count is on record?
Its cell count is 66%.

With `Cn1cncc1[C@@](N)(c1ccc(Cl)cc1)c1ccc2c(c1)c(-c1cccc(Cl)c1)cc(=O)n2C` [tipifarnib] + CCCCCCCCCCCC1=C(O)C(=O)C=C(O)C1=O [Embelin] (first compound 0.05 µM, partner dose 6 µM) as the molecule, how does the cell count read?
The cell count was 82.1%.

Which cell count does the source give for `CC1(C)NC(=O)N(c2ccc([N+](=O)[O-])c(C(F)(F)F)c2)C1=O` [nilutamide] + CCN(CC)CCCCNc1ncc2cc(-c3cc(OC)cc(OC)c3)c(NC(=O)NC(C)(C)C)nc2n1 [PD173074] (first compound 5 µM, partner dose 0.5 µM) here?
The cell count was 101%.

How did the cell count turn out when `C[C@@H]1CCN(C(=O)CC#N)C[C@@H]1N(C)c1ncnc2[nH]ccc12` + CCc1ccc(CCOc2ccc(CC3SC(=O)NC3=O)cc2)nc1 [pioglitazone] (first compound 5 µM, partner dose 10 µM) was run?
The cell count was 92.9%.

`Cn1cncc1[C@@](N)(c1ccc(Cl)cc1)c1ccc2c(c1)c(-c1cccc(Cl)c1)cc(=O)n2C` [tipifarnib] + Oc1cc(-c2nc(-c3ccccc3)[nH]c2-c2ccncc2)ccc1Cl [L779450] (first compound 0.05 µM, partner dose 1 µM) was tested. Which cell count did it give?
The cell count was 101%.

How did the cell count turn out when `Cn1cncc1[C@@](N)(c1ccc(Cl)cc1)c1ccc2c(c1)c(-c1cccc(Cl)c1)cc(=O)n2C` [tipifarnib] + COc1ccc(-c2ccc3c(N4CCOCC4)nc(N4C[C@@H](C)O[C@@H](C)C4)nc3n2)cc1CO [KU0063794] (first compound 0.05 µM, partner dose 0.1 µM) was run?
The cell count was 85.8%.

For `Cn1cncc1[C@@](N)(c1ccc(Cl)cc1)c1ccc2c(c1)c(-c1cccc(Cl)c1)cc(=O)n2C` [tipifarnib] + CCN(CC)CCCCNc1ncc2cc(-c3cc(OC)cc(OC)c3)c(NC(=O)NC(C)(C)C)nc2n1 [PD173074] (first compound 0.05 µM, partner dose 0.5 µM), which cell count is on record?
Its cell count is 121%.
